Test results from the supplement of paper PMC6746778.
Where a name gives a salt, the structure may show the parent alone. The list shows a part of the results. Many values rest on one well or one pass, so single values are uncertain.

Assays:
Test in all cases: proliferation Z-score within cell line (SRB, relative to all inhibitors screened on that line); triple-negative breast cancer lines and a kinase inhibitor library; SRB is the sulforhodamine B protein stain; higher = less growth inhibition (more resistant)
Conditions in all cases: concentration: 1 µM; 4 days
Bt20 = system: Bt20
Bt549 = system: Bt549
HCC1143 = system: HCC1143
HCC1806 = system: HCC1806
HCC1937 = system: HCC1937
HCC38 = system: HCC38
HCC70 = system: HCC70
Hs578T = system: Hs578T
MDA-MB-231 = system: MDA-MB-231
MDA-MB-435s = system: MDA-MB-435s
MDA-MB-436 = system: MDA-MB-436
MDA-MB-453 = system: MDA-MB-453
MDA-MB-468 = system: MDA-MB-468
SKBR7 = system: SKBR7
SUM1315MO2 = system: SUM1315MO2
SUM149PT = system: SUM149PT
SUM159PT = system: SUM159PT
SUM185PE = system: SUM185PE
SUM229PE = system: SUM229PE
SUM52PE = system: SUM52PE
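Further: Single-dose primary screen of a 378-member kinase inhibitor library in 96-well plates, with growth read as absorbance of protein-bound SRB dye after TCA fixation.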

| Compound | proliferation Z-score within cell line (Bt20) | proliferation Z-score within cell line (Bt549) | proliferation Z-score within cell line (HCC1143) | proliferation Z-score within cell line (HCC1806) | proliferation Z-score within cell line (HCC1937) | proliferation Z-score within cell line (HCC38) | proliferation Z-score within cell line (HCC70) | proliferation Z-score within cell line (Hs578T) | proliferation Z-score within cell line (MDA-MB-231) | proliferation Z-score within cell line (MDA-MB-435s) | proliferation Z-score within cell line (MDA-MB-436) | proliferation Z-score within cell line (MDA-MB-453) | proliferation Z-score within cell line (MDA-MB-468) | proliferation Z-score within cell line (SKBR7) | proliferation Z-score within cell line (SUM1315MO2) | proliferation Z-score within cell line (SUM149PT) | proliferation Z-score within cell line (SUM159PT) | proliferation Z-score within cell line (SUM185PE) | proliferation Z-score within cell line (SUM229PE) | proliferation Z-score within cell line (SUM52PE) |
| --- | --- | --- | --- | --- | --- | --- | --- | --- | --- | --- | --- | --- | --- | --- | --- | --- | --- | --- | --- | --- |
| CO[C@H]1C[C@@H]2CC[C@@H](C)[C@@](O)(O2)C(=O)C(=O)N2CCCC[C@H]2C(=O)O[C@H]([C@H](C)C[C@@H]2CC[C@@H](OP(C)(C)=O)[C@H](OC)C2)CC(=O)[C@H](C)/C=C(\C)[C@@H](O)[C@@H](OC)C(=O)[C@H](C)C[C@H](C)/C=C/C=C/C=C/1C [Ridaforolimus (Deforolimus, MK-8669)] | -1.46 | -2.35 | -0.367 | 0.0142 | -1.11 | -0.959 | -1.49 | -2.7 | -0.8 | -0.715 | -1.36 | -1.84 | -0.813 | -1.33 | -0.708 | -0.619 | -0.603 | -1.11 | -1.05 | -0.994 |
| COc1ccc(Cl)cc1NC(=O)Nc1cc(C)nc2ccccc12 | 0.424 | 0.313 | 0.288 | 0.254 | 0.899 | 0.312 | 0.344 | 0.583 | 0.646 | 0.102 | 0.301 | 0.123 | 0.596 | -0.453 | 0.538 | 0.208 | 0.15 | 0.278 | 0.641 | 0.945 |
| COc1cc(Nc2ncc3c(n2)-c2ccc(Cl)cc2C(c2c(F)cccc2OC)=NC3)ccc1C(=O)O [Alisertib (MLN8237)] | -0.769 | -1.16 | -0.684 | 0.295 | -0.787 | -1.01 | -0.755 | -1.07 | -1.53 | -0.536 | -0.134 | -1.03 | -1.86 | -1.09 | -0.153 | -0.358 | 0.31 | 0.174 | -0.0983 | -1.25 |
| CNC(=O)c1ccccc1Nc1nc(Nc2ccc(N3CCOCC3)cc2OC)ncc1Cl | -0.127 | 0.4 | -0.475 | -0.975 | 0.0523 | -0.0406 | -0.323 | -0.352 | -0.864 | -0.838 | 0.149 | -0.892 | 0.124 | -1.04 | 0.0145 | -0.838 | -0.607 | 0.257 | -0.946 | -0.234 |
| CNC(=O)c1cc(Oc2ccc(NC(=O)Nc3ccc(Cl)c(C(F)(F)F)c3)cc2)ccn1 [Sorafenib Tosylate] | 1 | 0.804 | -0.329 | 1.05 | 0.199 | 0.437 | -0.921 | 0.582 | 0.449 | 0.471 | -0.142 | -0.0639 | 1 | -0.796 | 0.438 | 0.615 | 0.394 | 0.0425 | 1.43 | -0.91 |
| Cc1ccc(C(=O)Nc2cccc(C(F)(F)F)c2)cc1Nc1nc(-c2cccnc2)nc2c1cnn2C | 1.23 | 0.813 | 1.16 | 0.367 | 0.729 | 0.536 | 0.793 | 0.613 | 0.469 | 0.933 | 0.667 | 0.675 | 0.282 | 0.883 | 1.14 | 1.2 | 0.581 | 1.01 | 1.13 | 0.45 |
| CO[C@H]1C[C@@H]2CC[C@@H](C)[C@@](O)(O2)C(=O)C(=O)N2CCCC[C@H]2C(=O)O[C@H]([C@H](C)C[C@@H]2CC[C@@H](O)[C@H](OC)C2)CC(=O)[C@H](C)/C=C(\C)[C@@H](O)[C@@H](OC)C(=O)[C@H](C)C[C@H](C)/C=C/C=C/C=C/1C [Rapamycin (Sirolimus)] | -1.45 | -2.1 | -1.45 | -0.101 | -1.3 | -1.03 | -1.59 | -2.47 | -0.602 | -0.803 | -1.61 | -1.84 | -0.612 | -1.49 | -0.676 | -0.851 | -1.56 | -0.759 | -1.02 | -0.905 |
